# Assay results as given in PMC4336329 (PLoS ONE, 2015).
# Among all 310,000 compounds or so, about 2,200 (0.71%) showed an effect of 50% or more. Effects have a minus sign here. The list shows a part of the results.
# Biological target: human ether-à-go-go-related gene (hERG) potassium channel (human, UniProt Q12809)
# Assay: primary screen, population patch clamp on CHO cells stably expressing hERG
# Chain of human ether-à-go-go-related gene (hERG) potassium channel (Q12809 whole entry, looked up): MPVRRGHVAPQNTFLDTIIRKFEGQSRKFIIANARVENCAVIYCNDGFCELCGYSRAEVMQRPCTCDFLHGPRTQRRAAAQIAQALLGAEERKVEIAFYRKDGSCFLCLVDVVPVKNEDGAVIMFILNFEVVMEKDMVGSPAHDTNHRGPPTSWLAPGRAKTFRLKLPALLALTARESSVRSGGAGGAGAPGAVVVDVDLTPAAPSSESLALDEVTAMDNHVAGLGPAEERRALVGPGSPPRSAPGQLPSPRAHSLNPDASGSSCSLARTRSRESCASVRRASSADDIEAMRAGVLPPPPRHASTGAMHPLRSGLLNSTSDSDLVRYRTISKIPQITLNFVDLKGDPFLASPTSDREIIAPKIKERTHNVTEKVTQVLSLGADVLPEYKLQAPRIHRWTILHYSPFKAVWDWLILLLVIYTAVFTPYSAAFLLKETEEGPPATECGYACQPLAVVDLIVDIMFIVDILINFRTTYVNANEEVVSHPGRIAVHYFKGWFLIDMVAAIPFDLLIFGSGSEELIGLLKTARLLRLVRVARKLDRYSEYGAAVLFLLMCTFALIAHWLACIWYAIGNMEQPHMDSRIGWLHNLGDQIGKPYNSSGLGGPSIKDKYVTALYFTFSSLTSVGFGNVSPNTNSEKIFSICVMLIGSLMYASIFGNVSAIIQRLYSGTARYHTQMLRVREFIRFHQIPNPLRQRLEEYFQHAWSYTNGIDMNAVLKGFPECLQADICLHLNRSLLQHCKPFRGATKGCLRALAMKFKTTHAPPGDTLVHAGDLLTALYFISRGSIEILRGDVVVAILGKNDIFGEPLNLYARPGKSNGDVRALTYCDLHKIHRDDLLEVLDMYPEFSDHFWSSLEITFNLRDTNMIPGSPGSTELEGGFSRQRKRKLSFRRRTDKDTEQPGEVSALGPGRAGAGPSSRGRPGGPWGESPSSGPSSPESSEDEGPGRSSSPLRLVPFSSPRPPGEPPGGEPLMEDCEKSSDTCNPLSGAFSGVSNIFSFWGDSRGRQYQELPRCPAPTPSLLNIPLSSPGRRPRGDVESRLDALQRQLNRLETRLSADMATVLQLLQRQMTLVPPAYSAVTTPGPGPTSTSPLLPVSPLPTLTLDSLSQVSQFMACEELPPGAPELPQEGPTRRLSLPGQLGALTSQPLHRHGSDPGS
row,Compound,"hERG current change (%, negative = inhibition) at 1uM"
1,O=C(O)CSC1c2ccccc2C(=O)N1c1ccccc1 (stereo not shown),9.95%
2,Cc1ccc(N=Cc2cc3c(cc2[N+](=O)[O-])OCO3)cc1[N+](=O)[O-],16.4%
3,Cc1ccc(C)c(OCCC(=O)OCC(=O)Nc2cccnc2Cl)c1,17.8%
4,Cc1ccc(NC(/C=C/N(C)C)=C/C(=O)C(F)(F)F)c(C)c1,-5.03%
5,CCN(c1ccccc1)c1nc(C#N)nc(N(CC)c2ccccc2)n1,3.83%
6,CCOC(=O)N1CCN(C(=O)c2cc(COc3c(F)cccc3F)on2)CC1,-15.7%
7,COc1ccc(OC)c(Cc2nnc(CCC(=O)NCc3nc4ccccc4s3)o2)c1,8.8%
8,O=C(O)c1cccc(Oc2cccc(Cl)n2)c1,6.45%
9,Cc1cc(NC(=O)c2cccc(Oc3ccccc3)c2)n[nH]1,14.8%
10,COc1ccccc1NC(=O)Nc1nn(C)c2cccc(N(C)C)c12,12%
11,COc1ccc(NCc2nnc(SCC(=O)Nc3cc(C(F)(F)F)ccc3Cl)o2)cc1,14%
12,CC(OC(=O)c1ccc(NS(=O)(=O)c2cccs2)cc1)C(=O)N(C)C1CCCCC1 (stereo not shown),7.67%
13,COc1ccc(N2C(=O)CC(N3CCN(Cc4ccc5c(c4)OCO5)CC3)C2=O)cc1 (stereo not shown),17%
14,CCC(C)NCCCOc1ccc([N+](=O)[O-])cc1.O=C(O)C(=O)O (stereo not shown),-73.7%
15,CCCOc1ccc(CNC(=O)CCC(=O)n2ncc3cc(C)ccc32)cc1,16.2%
16,Cc1cccc(NC(=O)c2cccc(S(=O)(=O)N3CCc4ccccc4C3)c2)n1,23.8%
17,CC(CCCC(C)(C)O)NCCO (stereo not shown),7.66%
18,COc1ccccc1N1CCN(C(=O)CSc2nc3ccccc3[nH]2)CC1,6.33%
19,COC(=O)c1ccc(NC(=S)NC(=O)c2cc(-c3ccccc3)nc3ccccc23)cc1,9.36%
20,C[C@H](NC(=O)c1[nH]cnc1C(=O)Nc1cccc(Cl)c1)c1ccccc1,15.2%
21,O=C(C1CCN(S(=O)(=O)c2cccs2)CC1)N1CCCCCC1,-8.5%
22,CCOc1ccc(CN(C)c2ccc(S(=O)(=O)N3CCN(C)CC3)cc2[N+](=O)[O-])cc1OC,9.49%

row,Compound,"hERG current change (%, negative = inhibition) at 1uM"
1,C=CCn1c(CCNC(=O)c2cccs2)nnc1SCC(=O)c1cccc([N+](=O)[O-])c1,-0.426%
2,CN(C)CCn1c2c(c(SCC(=O)N3CCc4ccccc43)nc1=O)CCCC2,-6.68%
3,O=C1Nc2ccccc2/C1=C/C(=O)c1cccs1,8.18%
4,COCCNC(=O)/C(C#N)=C/c1ccc(N2CCOCC2)o1,5.25%
5,CCC(=Nc1cc(OC)ccc1OC)c1c(O)[nH]c(=O)[nH]c1=O,5.53%
6,COc1cccc(CNC(=O)Cc2ccc(NC(=O)C3=C(C)OCCS3)cc2)c1,9.76%
7,O=c1[nH]c(CSc2nnc(-c3ccccc3)n2-c2ccccc2)nc2ccccc12,12%
8,NC(=O)c1ccsc1NC(=O)COC(=O)Cc1c[nH]c2ccccc12,8.82%
9,O=C(NC(CC(=O)N1CCCC(C(F)(F)F)C1)c1ccccc1)c1ccccc1Cl (stereo not shown),8.72%
10,O=Cc1cn(Cc2ccc([N+](=O)[O-])cc2)c2ccccc12,5.49%
11,CC(=O)NC(Cc1ccccc1F)C(=O)NC1CCN(C(=O)c2cnccn2)CC1 (stereo not shown),0.513%
12,CCCN(CCC)CCCNC(=O)CCNS(=O)(=O)c1ccc(Br)cc1,0.507%
13,CCOC(=O)c1sc(NC(=O)c2ccc(OC(C)=O)cc2)nc1C,3.02%
14,CC(Sc1nnnn1C)C(=O)Nc1ccc2c(c1)OCCO2 (stereo not shown),-4.01%
15,CCC1(C)Cc2ccccc2C(=S)N1 (stereo not shown),12%
16,Cc1ccc(NC(=O)N2CCCC2C(=O)NCc2ccc3c(c2)OCO3)cc1 (stereo not shown),9.11%
17,COc1ccc(N=C2C(=O)Nc3c(C)cccc32)cc1,8.86%
18,COc1ccc(N(C)C(=O)c2cc3c(s2)-c2ccc(Cl)cc2S(=O)(=O)C3)c(OC)c1,-7.04%
19,CC1=Nc2ccccc2/C1=C/c1sc(=O)n(CC(=O)N2CCCC2)c1O,10.3%
20,COc1ccc(N2CC(C(=O)Nc3ccc(S(=O)(=O)N4CCOCC4)cc3)CC2=O)cc1 (stereo not shown),11.9%
21,COc1ccccc1CNC(=O)CN(c1cccc([N+](=O)[O-])c1)S(C)(=O)=O,7.52%
22,O=C(NCCS(=O)(=O)N1CCN(c2ccc(F)cc2)CC1)C1CC(=O)N(c2ccccc2)C1 (stereo not shown),3.21%

row,Compound,"hERG current change (%, negative = inhibition) at 1uM"
1,CCOC(=O)CNC(=O)CCCCCC(=O)NCC(=O)OCC,14.6%
2,COc1ccc(C2C3C(=O)N(Cc4ccccc4)C(=O)C3ON2c2ccccc2)c(OC)c1OC (stereo not shown),11.2%
3,Cc1cc(NC(=O)c2cc(-c3cccs3)on2)no1,1.68%
4,Cc1cnc(NC(=O)c2c(Cl)cnn2C)s1,11.2%
5,COc1ccccc1C(=O)CSc1cccc[n+]1[O-],8.11%
6,O=C(NCSC1=NCCS1)c1ccccc1,7.18%
7,COc1ccccc1CNC(=O)C1Cc2cc(S(=O)(=O)N3CCCC3)ccc2N1C(C)=O (stereo not shown),19%
8,O=C(COc1ccccc1)NCCSc1ccccc1,2.66%
9,Cc1nc(Oc2ccccc2)c2oc3ccccc3c2n1,12.7%
10,COc1ccc(C2=NS(=O)(=O)N(C)C(C(=O)NC(C)c3ccccc3)=C2)cc1 (stereo not shown),-1.25%
11,O=C(Cc1c[nH]c2ccccc12)NCc1ccc2c(c1)OCO2,20%
12,COc1ccc(C(=O)Nn2c(SCC(=O)c3ccccc3)nc3ccccc3c2=O)cc1,-14.8%
13,CCN(CC)CCNC(=O)c1ccc(Cl)c(S(=O)(=O)N2CCCCCC2)c1.Cl,-52.2%
14,CC(C)NC(=O)C(=O)Nc1cc2c3c(c1)CCC(=O)N3CCC2,11.5%
15,CN(c1ccc(OCC(=O)OCC(=O)Nc2cccc([N+](=O)[O-])c2)cc1)S(=O)(=O)c1ccc(F)cc1,9.84%
16,CC(C)=CC(=O)OCC(=O)Nc1ccc(F)cc1Cl,5.58%
17,O=C(COc1ccc(/C=N/NC(=O)CSCc2ccc([N+](=O)[O-])cc2)cc1)NCc1ccco1,-4.2%
18,Cc1cccc(NC(=O)c2ccc(OCc3c(C)noc3C)cc2)c1,16.9%
19,COc1ccc(/C=C/CN2CCN(CC(C)C)C(CCO)C2)cc1 (stereo not shown),-0.433%
20,CCC1(CC)NC(=O)N(CC(=O)OCC(=O)NC(=O)c2ccc(Cl)cc2)C1=O,7.69%
21,COc1ccc(/C=N/NC(=O)c2cccc([N+](=O)[O-])c2)c2ccccc12,2.39%
22,Cc1c(Br)c(-c2n[nH]c(=S)n2Cc2ccco2)nn1C,8.41%

row,Compound,"hERG current change (%, negative = inhibition) at 1uM"
1,CCc1noc(N)c1C(=O)Nc1ccc(F)c(Cl)c1,10.9%
2,O=C(NC(=S)Nc1ccc(CN2CCOCC2)cc1)c1ccc(-c2cccc(Cl)c2)o1,7.67%
3,O=C(NCCc1ccncc1)C(F)(F)F,19.3%
4,COC(=O)c1cc(-c2ccc(OC)cc2F)nc2nc(SC)[nH]c(=O)c12,17.1%
5,COc1ccc(C(=O)NCCc2nnc3ccc(SCC(=O)N4CCCCC4)nn23)cc1,10.9%
6,Cc1c(C(=O)N2CCCCC2)sc(NC(=O)C2CC2)c1C#N,9.9%
7,CCCSc1nnc(NC(=O)CSc2nc3[nH]c(=O)cc(O)c3s2)s1,14.8%
8,O=C(CCSCCC(=O)NCc1cccs1)NCc1cccs1,11.4%
9,Cc1csc(NC(=O)CSc2nnc(C)c(=O)n2N)n1,1.29%
10,COC(=O)c1ccc(N2C(=O)CC(SCC(=O)Nc3ccc(OC)cc3)C2=O)cc1 (stereo not shown),2.09%
11,CC1CCN(S(=O)(=O)c2ccc(F)c(C(=O)O)c2)CC1,4.2%
12,O=C(CSc1nnc(Nc2ccccc2)s1)NN1C(=O)NC2(CCCCC2)C1=O,6.02%
13,CC1CN(c2ccc([N+](=O)[O-])c(NCCOc3ccc(Cl)cc3)c2)CC(C)N1 (stereo not shown),3.04%
14,Cc1cc(C)n(Cc2ccccc2)c(=O)c1S(=O)(=O)c1ccccc1,3.34%
15,CC(=O)N1CCN(C(=O)c2ccc(-n3c(C)ccc3C)cc2)CC1,1.49%
16,O=C(COC(=O)c1ccc(Cl)nc1)Nc1ncc(Cl)cc1Cl,15.8%
17,O=C(COC(=O)c1n[nH]c(=O)c2ccccc12)NC1CCCCC1,8.64%
18,Cl.O=C(CCCN1CCOC(c2ccccc2)C1)c1ccc(F)cc1 (stereo not shown),-45.7%
19,O=C(CSc1ncn[nH]1)NNC(=O)c1ccccc1,-2.53%
20,Cc1cccc(/C=N/NC(=O)Cc2cccs2)c1,12.3%
21,Cc1n[nH]c(=O)c2c(NC(=O)CSc3nn(-c4ccccc4)c(=S)s3)oc(C)c12,13.9%
22,O=C(NCCC1=CCCCC1)C1CCN(S(=O)(=O)c2cccs2)CC1,-1.95%
